The source of these data is paper PMC4336329 (PLoS ONE, 2015).

The whole screen tested about 310,000 compounds, of which about 14,000 (4.5%) showed an effect of 50% or more. Effects have a minus sign here. The list shows a part of the results.
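Also: peak tail current of the secondary pulse compared with the same well before compound.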

Sequence of human ether-à-go-go-related gene (hERG) potassium channel (Q12809 whole entry, looked up): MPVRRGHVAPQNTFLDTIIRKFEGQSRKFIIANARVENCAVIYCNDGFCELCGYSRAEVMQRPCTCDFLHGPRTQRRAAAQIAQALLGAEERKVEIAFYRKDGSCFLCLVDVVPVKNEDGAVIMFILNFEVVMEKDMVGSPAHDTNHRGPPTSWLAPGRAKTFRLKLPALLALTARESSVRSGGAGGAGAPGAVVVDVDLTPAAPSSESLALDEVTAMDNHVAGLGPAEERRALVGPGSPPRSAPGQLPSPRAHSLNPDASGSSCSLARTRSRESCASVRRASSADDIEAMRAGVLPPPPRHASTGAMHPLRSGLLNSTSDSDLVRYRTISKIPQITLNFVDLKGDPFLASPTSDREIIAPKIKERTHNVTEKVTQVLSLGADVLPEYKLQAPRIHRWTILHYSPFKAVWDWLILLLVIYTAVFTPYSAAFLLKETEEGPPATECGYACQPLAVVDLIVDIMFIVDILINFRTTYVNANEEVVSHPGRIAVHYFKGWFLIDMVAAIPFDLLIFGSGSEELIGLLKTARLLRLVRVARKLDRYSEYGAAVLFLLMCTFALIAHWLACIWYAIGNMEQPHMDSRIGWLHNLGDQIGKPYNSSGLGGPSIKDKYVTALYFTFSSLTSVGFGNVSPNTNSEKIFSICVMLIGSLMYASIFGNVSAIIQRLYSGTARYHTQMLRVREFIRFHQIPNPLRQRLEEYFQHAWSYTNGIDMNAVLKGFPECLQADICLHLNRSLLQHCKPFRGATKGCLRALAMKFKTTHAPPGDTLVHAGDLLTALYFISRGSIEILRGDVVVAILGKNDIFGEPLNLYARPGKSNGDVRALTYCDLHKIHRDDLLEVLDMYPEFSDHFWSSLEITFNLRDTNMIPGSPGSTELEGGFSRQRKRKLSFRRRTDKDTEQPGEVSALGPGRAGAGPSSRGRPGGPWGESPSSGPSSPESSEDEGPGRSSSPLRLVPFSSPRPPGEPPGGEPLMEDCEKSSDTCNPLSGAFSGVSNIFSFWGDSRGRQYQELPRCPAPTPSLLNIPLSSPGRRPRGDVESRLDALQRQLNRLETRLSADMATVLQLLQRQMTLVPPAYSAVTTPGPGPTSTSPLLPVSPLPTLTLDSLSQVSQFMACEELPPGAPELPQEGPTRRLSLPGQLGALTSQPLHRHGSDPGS

The test concerns the target human ether-à-go-go-related gene (hERG) potassium channel (human, UniProt Q12809). Put plainly: primary screen, population patch clamp on CHO cells stably expressing hERG.
On to `O=C1C=C(c2cc3ccccc3s2)C[C@@H](c2ccc3c(c2)OCO3)C1`, for which the “hERG current change (%, negative = inhibition) at 10uM” value turned out to be 12.6%.
Turning to `O=S(=O)(c1ccc(F)cc1)N(CCO)CC(O)Cn1c2ccccc2c2ccccc21` (stereo not shown), the “hERG current change (%, negative = inhibition) at 10uM” value was -3.36%.
Turning to `COCc1cc(C)nc(OCC(=O)N/N=C/c2cccc(OC)c2)c1C#N`, the “hERG current change (%, negative = inhibition) at 10uM” value is given as -2.24%.
In the case of `CNC(=O)COC(=O)c1cc(-c2ccc(OC)cc2)nc2ccccc12` it was -9.55%.
Consider `COc1ccc2[nH]cc(CCN(C)C)c2c1`, for which the “hERG current change (%, negative = inhibition) at 10uM” value is 18.9%.
The same measure for `O=C(NC1CC1)C1=C[C@H](c2csc3ccccc23)C[C@H](OCCCCO)O1`: -24.1%; for `Cc1cc(C)n2nc(CC(=O)NNC(=O)c3ccccc3Cl)nc2n1`: 13.2%.
As to `Cc1cccc(NC(=O)c2cc3ccccc3nc2C)c1`, the “hERG current change (%, negative = inhibition) at 10uM” value is recorded as 9.2%.
The same measure for `c1ccc(SCc2nc(-c3ccncc3)n[nH]2)nc1`: 12.6%; for `O=C(Nc1cccc2ccccc12)c1cnsn1`: 5.58%.
Regarding `O=C(Nc1ccc2c(c1)CCC2)c1c(F)cccc1Cl`, the “hERG current change (%, negative = inhibition) at 10uM” value was 36.1%.
`Cc1ccc(-c2csc(N(Cc3ccccc3)C(=O)COc3ccccc3)n2)cc1`: the “hERG current change (%, negative = inhibition) at 10uM” value was found to be 7.08%.
With `CCOC(=O)c1nn(-c2ccccc2)c2nnc(Cc3ccccc3)c(=O)n12`, the “hERG current change (%, negative = inhibition) at 10uM” value was determined as 1.04%.
For `O=C1C(c2ccc(F)cc2)N(Cc2ccc3c(c2)OCO3)C(=O)CN1C1CCCC1` (stereo not shown), the “hERG current change (%, negative = inhibition) at 10uM” value is -30.7%.
For `Cc1ccc(/C=C(\CCC(=O)O)c2nc3ccccc3s2)cc1[N+](=O)[O-]`, the “hERG current change (%, negative = inhibition) at 10uM” value is recorded as 16%.
For the molecule `Cc1cc(C)cc(NC(=O)C(Sc2ncnc3ccccc23)c2ccccc2)c1` (stereo not shown), the “hERG current change (%, negative = inhibition) at 10uM” value came out at 16.1%.
As to `CCN1CCN(c2ccc(S(=O)(=O)N3CCCCC3)cc2NC(=O)COc2ccccc2)CC1`, the “hERG current change (%, negative = inhibition) at 10uM” value was -66.6%.
Take `O=C(NCC1(c2ccccc2)CCCC1)C(=O)N1CCOCC1`: the “hERG current change (%, negative = inhibition) at 10uM” value is listed as 11%.
As for `O=C(NC1CCCC1)C(c1ccccc1F)N(C(=O)c1csnn1)C1CC1` (stereo not shown), the “hERG current change (%, negative = inhibition) at 10uM” value worked out at 1.26%.
As to `Cc1ccc(OC(=O)c2cc3ccccc3o2)cc1`, the “hERG current change (%, negative = inhibition) at 10uM” value came to 22.2%.
Turning to `S=C(NCC1(c2ccccc2)CCCC1)Nc1ccccc1`, the “hERG current change (%, negative = inhibition) at 10uM” value came to 23.8%.
With `CC(C)CC(=O)NC1(C(F)(F)F)NC(=O)N(c2ccccc2)C1=O` (stereo not shown), the “hERG current change (%, negative = inhibition) at 10uM” value is 26%.
Consider `COc1ccc(C(=O)NCc2ccc3c(c2)OCO3)cc1S(=O)(=O)NCc1ccc(Cl)cc1`, for which the “hERG current change (%, negative = inhibition) at 10uM” value is reported as -38.6%.
The same measure for `COC(OC)c1ccnc(-c2ccc(OC(=O)c3ccccc3)cc2)n1`: 31%.
Take `C/C(=N\Nc1cc(N2CCOCC2)nc(C)n1)c1ccc(F)cc1`: the “hERG current change (%, negative = inhibition) at 10uM” value is -12%.
Consider `CC1C(=O)OC(c2ccc(Cl)cc2)C(C)(C)C1=O` (stereo not shown), for which the “hERG current change (%, negative = inhibition) at 10uM” value came to 15.3%.
In the case of `CN1CCCN(C(=O)c2ccc(Br)s2)CC1`, the “hERG current change (%, negative = inhibition) at 10uM” value is listed as -14.5%.
In the case of `COC(=O)c1sccc1NC(=O)COc1ccc(C)cc1`, the “hERG current change (%, negative = inhibition) at 10uM” value came out at 33.3%.
`Nc1ccc(S(=O)(=O)c2cccc(N)c2)cc1`: the “hERG current change (%, negative = inhibition) at 10uM” value is given as -1.51%.
The same measure for `O=Cc1sc(N2CCOCC2)nc1-c1ccccc1`: 3.83%; for `O=c1[nH]c(C2CCN(S(=O)(=O)c3ccc4c(c3)OCCO4)CC2)nc2c1nnn2Cc1cccc(F)c1`: 3.14%; for `Cc1ccc2c(c1)NCC(C(=O)NCc1ccccc1)O2` (stereo not shown): 1.28%.
For `O=C(c1ccc(CS(=O)(=O)c2c(Cl)cccc2Cl)o1)N1CCCC1`, the “hERG current change (%, negative = inhibition) at 10uM” value is given as -11.2%.
Turning to `CC(C)C[C@H](NC(=O)N1c2ccccc2NC(=O)[C@@H]1C(C)C)C(=O)N[C@@H](Cc1ccccc1)C(=O)O`, the “hERG current change (%, negative = inhibition) at 10uM” value is -2.11%.
The same measure for `O=C(Cc1ccccc1)N1CCN(Cc2ccccc2Cl)CC1.O=C(O)C(=O)O`: 7.24%.
The same measure for `O=Nc1onc(-c2ccc([N+](=O)[O-])cc2)c1NO`: 17%; for `COc1ccc(Cc2nc(=S)[nH][nH]2)cc1Br`: 22.7%; for `O=C(Nc1ncc(Cc2ccccc2)s1)C1=NCCN1`: 6.81%.
For `CN(CC(=O)Nc1nc2ccccc2s1)S(=O)(=O)c1ccccc1`, the “hERG current change (%, negative = inhibition) at 10uM” value is listed as -6.25%.
Take `CSc1nc(-c2ccccc2)nc(N2CCOCC2)c1C(C)=O`: the “hERG current change (%, negative = inhibition) at 10uM” value is given as 10.9%.
Regarding `Cc1ccccc1SCC(=O)NNC(=O)c1ccccc1O`, the “hERG current change (%, negative = inhibition) at 10uM” value was -0.473%.
Turning to `O=C1C(Cl)=C(N2CCOCC2)C(=O)N1CCc1ccccc1`, the “hERG current change (%, negative = inhibition) at 10uM” value is reported as -36.6%.
In the case of `CN(C)S(=O)(=O)c1ccc(C(=O)Nc2nnc(-c3ccc4c(c3)CCCC4)o2)cc1` it was 5.76%.
Take `N#Cc1c(NC(=O)c2cc(-n3cnnc3)ccc2Cl)sc2c1CCCC2`: the “hERG current change (%, negative = inhibition) at 10uM” value was determined as 15.4%.
In the case of `O=C(O)C1Cc2c([nH]c3ccccc23)C(c2ccc3c(c2)OCO3)N1` (stereo not shown) it was 4.15%; in that of `Cc1ccc(NC(=O)CSc2nnc(C3COc4ccccc4O3)o2)c(Cl)c1` (stereo not shown), 12.5%; in that of `COc1ccccc1CNC(=O)C1=CCN(S(=O)(=O)c2ccc(C)cc2)CC1`, -28.4%.
In the case of `COc1ccc(NC(=O)CSc2nnc(-c3cccc(O)c3)o2)cc1` it was 19.2%.
As for `C=CCOC(=O)C1=C(C)N=c2s/c(=C3\C(=O)N(CC(=O)O)c4ccccc43)c(=O)n2C1c1ccc(OC)cc1.CC(=O)O` (stereo not shown), the “hERG current change (%, negative = inhibition) at 10uM” value is listed as 10.4%.
On to `O=C(N/N=C/c1ccc(N2CCOCC2)c([N+](=O)[O-])c1)c1ccc(F)cc1`, for which the “hERG current change (%, negative = inhibition) at 10uM” value is -15.9%.
Consider `COc1cc(NC(=O)c2ccc([N+](=O)[O-])cc2)c(OC)cc1NC(=O)CC(C)C`, for which the “hERG current change (%, negative = inhibition) at 10uM” value is 21%.
Consider `COc1cc(NC(=O)CN(C)S(=O)(=O)c2ccc3c(c2)CCC(=O)N3)cc(OC)c1`, for which the “hERG current change (%, negative = inhibition) at 10uM” value is listed as -23.9%.
In the case of `O=C(Nc1ccc(C(F)(F)F)cc1)c1cc(S(=O)(=O)NCC2COc3ccccc3O2)ccc1F` (stereo not shown), the “hERG current change (%, negative = inhibition) at 10uM” value is reported as -3.83%.
As for `COC(=O)N/N=C/c1cc(Br)ccc1O`, the “hERG current change (%, negative = inhibition) at 10uM” value is 5.22%.
The same measure for `O=C(O)c1ccccc1Sc1ncnc2sccc12`: 9.7%.
As for `CCOc1cc(C2NC(=O)CCC2[N+](=O)[O-])cc(Br)c1OC` (stereo not shown), the “hERG current change (%, negative = inhibition) at 10uM” value was 0.144%.
In the case of `CN(Cc1ccncn1)C(=O)CC1C(=O)NCCN1Cc1cccc(Oc2ccccc2)c1` (stereo not shown) it was 10.2%.
In the case of `O=C1C2C3C=CC(C2C(=O)N1C1CCCCC1)C1C2C(=O)N(C4CCCCC4)C(=O)C2C31` (stereo not shown) it was -9.75%; in that of `COc1cccc(-c2nn(C)c3sc(C(=O)N4CCOCC4)cc23)c1`, -6.02%.
Take `N#Cc1sc2nc(-c3cccs3)cc(-c3ccc(Cl)cc3)c2c1N`: the “hERG current change (%, negative = inhibition) at 10uM” value is on record as -2.05%.
Regarding `CCCc1nnc(NC(=O)CCC(=O)N2CCN(c3ccccc3)CC2)s1`, the “hERG current change (%, negative = inhibition) at 10uM” value is -26.7%.
For the molecule `COc1cc(C(N)=O)cc(Cl)c1OC`, the “hERG current change (%, negative = inhibition) at 10uM” value is recorded as 45.2%.
The same measure for `C[C@@H](C(=O)Nc1ccc2ccccc2c1)[C@H]1C[C@]1(C)[C@H](NC(=O)c1cccnc1)c1ccccc1`: -12.9%.
For `N=c1c2c(ncn1Cc1ccco1)Oc1ccc3ccccc3c1C2c1ccccc1` (stereo not shown), the “hERG current change (%, negative = inhibition) at 10uM” value is on record as -6.08%.
The same measure for `CCc1c(C)sc(NC(=O)c2cccs2)c1C(=O)OC(C)C`: 2.8%; for `COc1cccc(C(=O)N(C)C(C)c2nc3ccccc3s2)c1` (stereo not shown): -3.31%.
`Cc1cc(C)c2cccc(N)c2n1`: the “hERG current change (%, negative = inhibition) at 10uM” value stood at 20.7%.
Consider `CCCCNS(=O)(=O)c1ccc2nc(-c3cccnc3)cc(C(=O)NCCCN(CC)CC)c2c1`, for which the “hERG current change (%, negative = inhibition) at 10uM” value is -7.3%.
As for `O=C(COC(=O)c1ccc(Cl)c(S(=O)(=O)N2CCOCC2)c1)Nc1ccc2[nH]c(=O)[nH]c2c1`, the “hERG current change (%, negative = inhibition) at 10uM” value came out at 5.41%.
In the case of `COC(=O)C1(C)NC(c2cccs2)C2C(=O)N(c3ccc(F)cc3)C(=O)C21` (stereo not shown) it was 19%; in that of `O=C1CC(NCc2ccccc2F)C(=O)N1c1ccccc1` (stereo not shown), 4.69%; in that of `c1ccc(-c2ccc(-c3ccncn3)cc2)cc1`, 23.6%.
With `CCn1c(Cc2c(C)[nH]c3ccccc23)n[nH]c1=S`, the “hERG current change (%, negative = inhibition) at 10uM” value is given as -17.8%.
On to `Cc1ccc(C(=O)NCC(=O)OCCCn2c(=O)[nH]c3ccccc32)cc1`, for which the “hERG current change (%, negative = inhibition) at 10uM” value is recorded as -14.8%.
The same measure for `Br.CCn1c(=N)n(CC(=O)c2ccc(Cl)c(Cl)c2)c2ccccc21`: -51.4%.
For `O=C(Oc1ccc(Cl)cc1N1C(=O)CCC1=O)c1ccco1`, the “hERG current change (%, negative = inhibition) at 10uM” value was determined as 7.9%.
For `Cc1ccc(NS(=O)(=O)c2ccc(C(=O)OCC(=O)N3CCCCC3)cc2)cc1`, the “hERG current change (%, negative = inhibition) at 10uM” value is reported as -28.4%.
`O=C(Cc1ccc(F)cc1)NCc1cccnc1`: the “hERG current change (%, negative = inhibition) at 10uM” value came out at 9.56%.
As for `Clc1nc(-c2ccccc2)cc(-c2ccccc2)n1`, the “hERG current change (%, negative = inhibition) at 10uM” value is 5.42%.
The same measure for `COCCn1c(=O)[nH]c2cc(C(=O)NC(C)C)ccc2c1=O`: 22.8%; for `C=C(C)Cn1cnc2c(oc3nc4c(cc32)CCCC4)c1=O`: -6.04%.
In the case of `C=CC(=O)NC(C)(C)CCN1CCOCC1`, the “hERG current change (%, negative = inhibition) at 10uM” value turned out to be 16.7%.
`O=C1N/C(=N/O)S/C1=C/c1cccc([N+](=O)[O-])c1`: the “hERG current change (%, negative = inhibition) at 10uM” value came out at 20.4%.
Regarding `Cc1ccc(NC(=O)CCNS(=O)(=O)c2cccc3nsnc23)cc1F`, the “hERG current change (%, negative = inhibition) at 10uM” value is -3.43%.
In the case of `CC(=O)c1c(C)n(-c2cccc(Cl)c2)c2ccc(O)cc12` it was 1.33%; in that of `CC1CC(=O)Nc2ccccc2N1C(=O)COc1ccc2cc(Br)ccc2c1` (stereo not shown), 0.55%; in that of `CC(=O)N1C(=O)C2(C(C#N)=C(N)Oc3n[nH]c(-c4ccccn4)c32)c2ccccc21` (stereo not shown), 4.71%.
As to `Br.Cc1ccc(C(=O)CN(Cc2ccccc2)C2=NCCS2)cc1`, the “hERG current change (%, negative = inhibition) at 10uM” value is given as -27.3%.
